Data reported in the supplement of paper PMC7826260.
Some of the results follow. Viral Rep nickase domains cut single-stranded DNA in vitro for 1 h at 37 °C with 3 µM enzyme; only the middle of the 90-letter strands is printed. Values are log2 of uncut reads against the no-enzyme pool; strong cutting gives strongly negative numbers. There is no active / inactive call. Because reads are shares of a total, they shift together; values above 0 arise when much of the pool is cut.

Legend:
Experiment in all cases: uncleaved DNA left, log2 of reads against the no-enzyme library (log2 ratio); higher = less cleavage (more negative = more Rep cleavage of the k-mer); sequences stand for … in CTCGTCCG…ACCGGAGA
[1] = test system: T1, Rep nickase domain of Muscovy duck circovirus
T1 sequence (residues 1-111, tag not shown): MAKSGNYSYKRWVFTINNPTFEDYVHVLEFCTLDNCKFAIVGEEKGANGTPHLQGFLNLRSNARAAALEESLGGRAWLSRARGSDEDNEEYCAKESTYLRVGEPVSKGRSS
Experimental: (§1)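 A pool of 90-nt single-stranded DNAs with seven random bases just before the constant AC of the nick site (name = the seven bases) was cut by 3 µM recombinant His6-SUMO-tagged Rep nickase domain (300 nM DNA, 50 mM HEPES pH 8.0, 50 mM NaCl, 1 mM MnCl2, 1 h, 37 °C, three replicates). Uncut DNA was amplified and sequenced.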

[2] = test system: T2, Rep nickase domain of banana bunchy top virus
T2 sequence (residues 1-94, tag not shown): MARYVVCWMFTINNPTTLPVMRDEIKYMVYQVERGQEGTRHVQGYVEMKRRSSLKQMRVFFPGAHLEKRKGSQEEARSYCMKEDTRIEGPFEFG
Experimental: as §1

[3] = test system: T3, Rep nickase domain of cabbage leaf curl virus
T3 sequence (residues 1-116, tag not shown): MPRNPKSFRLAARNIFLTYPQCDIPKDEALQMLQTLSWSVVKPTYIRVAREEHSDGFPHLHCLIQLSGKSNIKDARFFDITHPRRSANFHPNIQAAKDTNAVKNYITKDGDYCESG
Experimental: as §1

[4] = test system: T4, Rep nickase domain of chickpea chlorotic dwarf virus
T4 sequence (residues 1-124, tag not shown): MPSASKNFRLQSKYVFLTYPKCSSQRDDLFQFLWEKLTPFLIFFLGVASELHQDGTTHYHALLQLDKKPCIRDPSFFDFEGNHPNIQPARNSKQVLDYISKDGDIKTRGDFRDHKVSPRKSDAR
Experimental: as §1

[5] = test system: T5, Rep nickase domain of faba bean necrotic yellows virus
T5 sequence (residues 1-98, tag not shown): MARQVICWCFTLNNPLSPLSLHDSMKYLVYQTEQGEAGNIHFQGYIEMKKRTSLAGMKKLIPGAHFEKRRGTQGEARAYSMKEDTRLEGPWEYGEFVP
Experimental: as §1

[6] = test system: T6, Rep nickase domain of maize striate mosaic virus
T6 sequence (residues 1-117, tag not shown): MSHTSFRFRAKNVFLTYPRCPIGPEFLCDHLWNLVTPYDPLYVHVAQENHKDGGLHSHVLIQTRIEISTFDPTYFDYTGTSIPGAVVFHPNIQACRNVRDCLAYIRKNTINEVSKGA
Experimental: as §1

[7] = test system: T7, Rep nickase domain of porcine circovirus 2
T7 sequence (residues 2-116, tag not shown): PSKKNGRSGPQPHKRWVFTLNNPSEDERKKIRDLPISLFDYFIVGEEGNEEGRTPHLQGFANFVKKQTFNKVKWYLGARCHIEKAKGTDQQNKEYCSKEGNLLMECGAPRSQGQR
Experimental: as §1

[8] = test system: T8, Rep nickase domain of tomato golden mosaic virus
T8 sequence (residues 1-124, tag not shown): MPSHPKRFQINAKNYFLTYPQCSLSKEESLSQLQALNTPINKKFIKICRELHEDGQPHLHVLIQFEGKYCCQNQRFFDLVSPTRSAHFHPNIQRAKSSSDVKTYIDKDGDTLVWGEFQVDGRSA
Experimental: as §1

[9] = test system: T9, Rep nickase domain of tomato yellow leaf curl virus
T9 sequence (residues 1-136, tag not shown): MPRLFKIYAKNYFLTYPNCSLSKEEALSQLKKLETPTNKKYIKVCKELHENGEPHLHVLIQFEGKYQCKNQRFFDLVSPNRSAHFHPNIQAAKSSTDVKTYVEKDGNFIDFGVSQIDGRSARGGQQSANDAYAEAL
Experimental: as §1

[10] = test system: T10, Rep nickase domain of wheat dwarf virus
T10 sequence (residues 1-137, tag not shown): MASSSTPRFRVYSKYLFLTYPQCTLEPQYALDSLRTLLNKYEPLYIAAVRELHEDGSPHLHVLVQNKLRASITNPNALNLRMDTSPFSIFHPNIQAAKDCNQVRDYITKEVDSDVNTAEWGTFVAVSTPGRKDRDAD
Experimental: as §1

Sequence	uncleaved DNA left (log2) [1]	uncleaved DNA left (log2) [2]	uncleaved DNA left (log2) [3]	uncleaved DNA left (log2) [4]	uncleaved DNA left (log2) [5]	uncleaved DNA left (log2) [6]	uncleaved DNA left (log2) [7]	uncleaved DNA left (log2) [8]	uncleaved DNA left (log2) [9]	uncleaved DNA left (log2) [10]
CGGGAGC	0.0516	0.0283	0.484	1.16	-0.176	1.23	0.101	-0.0252	0.0258	0.0872
TGCGTCC	-0.0467	-0.0919	-0.18	-0.374	-0.0278	-0.619	-0.0603	-0.061	-0.0531	-0.0642
GGGACGC	-0.0186	0.061	0.867	2.07	-0.0351	2.28	0.219	0.0537	-0.104	0.162
TTTATTC	0.0118	-0.0104	0.188	-0.0346	0.0691	-0.743	0.0303	-0.131	-0.0106	0.015
ATAAGAT	-0.0108	0.0228	-0.995	-0.766	0.0612	1.4	0.194	0.0412	-0.138	-0.0986
AAGGCGT	0.0668	0.0105	-0.281	0.0682	0.0228	-0.311	0.113	0.0627	0.0425	0.0582
TACACAC	0.0517	-0.0246	-0.0522	-0.764	0.0372	-0.746	-0.0173	-0.1	-0.0322	-0.0489
AGCGCAA	-0.0122	0.216	-0.0241	0.656	-0.0195	1.2	0.0274	-0.0173	-0.0389	0.0856
GTGGACC	0.0034	0.0475	0.769	1.75	0.000878	2.19	0.259	0.134	0.052	0.136
TCCGGCG	0.0933	0.0978	-0.529	0.744	0.123	-0.168	0.0883	0.105	0.0726	0.0319
AACCTAC	0.174	0.0834	-0.205	-2.11	0.00693	-0.649	-0.129	0.0359	0.0613	0.124
TTGTATA	0.151	0.0793	0.268	-0.687	0.118	0.547	0.0124	0.131	0.0286	-0.0145
CCGATAA	-0.0598	-0.165	-0.262	-0.319	-0.0585	-0.615	-0.148	-0.0231	-0.14	-0.108
TCTGCCC	0.115	-0.0188	0.0791	-0.0404	0.00345	-0.146	-0.0566	-0.0123	0.0413	-0.0127
ATCGCCT	-0.106	-0.199	-0.351	-1.52	-0.154	-0.758	-0.112	-0.125	-0.1	-0.19
ATAGGAA	0.0516	0.0648	0.332	1.48	-0.00302	1.57	0.287	0.105	-0.121	0.179
CTAGAGA	0.056	-0.0116	0.247	0.45	0.0017	-0.584	0.0333	-0.00876	-0.151	-0.0174
ACTCCGA	0.0065	0.0332	-0.223	-0.0099	0.0248	-0.739	0.0973	0.00866	-0.074	-0.103
TAGAGAG	0.0936	0.0101	-0.39	-0.51	0.0323	-1.11	0.0473	0.11	0.0173	-0.0337
TTTTTCG	0.119	-0.012	-0.659	0.0429	0.0977	-0.919	0.208	0.0122	0.0461	0.0604
GTATTGA	-0.00142	0.0473	0.243	0.76	0.015	0.764	0.127	0.104	0.103	0.111
GTTAAAC	0.0392	0.1	0.336	0.827	-0.0154	1.59	-0.0382	0.0756	0.0802	0.0825
CCGTCCA	0.0491	-0.0556	0.0941	-0.781	-0.0102	-0.23	-0.134	-0.0264	0.0762	-0.036
CCCTGCC	-0.164	-0.118	-0.416	-0.566	-0.074	-0.85	-0.209	-0.12	-0.0505	-0.13
GCGCTCG	0.045	0.0823	-0.316	-0.316	0.133	-0.546	0.154	0.0156	-0.0309	-0.0396
CCGTGGG	0.0616	-0.125	0.0836	0.244	0.0253	0.0138	-0.0215	-0.0274	-0.0966	-0.117
TAAATTG	0.0242	0.00366	-0.929	-2.45	0.0419	-1.45	0.0985	-0.0354	0.143	-0.136
TGGACGT	0.105	0.246	0.997	2.06	0.132	2.25	0.318	0.115	0.109	0.155
CTGAGGG	-0.0375	0.00858	-0.0909	-0.215	0.0744	-0.77	0.231	-0.0283	0.0727	-0.0307
